Source: US20180057551A1 (AMYLONIX, published 2018)

Experiments:
human Aβ1-40 peptide [1] = biological target: T1, human Aβ1-40 peptide (human, biotin at the C-terminus (flow cytometry, Examples 2-4) or at the N-terminus (SPR, ELISA); unlabeled plus Alexa488/Alexa647-labeled in FCS); assay: SPR Biacore 2000, periplasmic sample over immobilised biotinylated hAβ1-40
T1 construct: synthetic peptide (AnaSpec); one entry for all labelled forms, label named under assay; also called hAβ1-40; Aβ40

[2] = biological target: T2, anti-ABD goat antibody (produced in-house); assay: SPR Biacore 2000, periplasmic sample over immobilised anti-ABD goat antibody
T2 construct: also called Anti-ABD surface

human Aβ1-40 peptide [3] = biological target: T1, human Aβ1-40 peptide; assay: sandwich ELISA, periplasmic ABD fusion, 2 nM biotinylated hAβ1-40
Description: Half-area 96-well ELISA plates (Costar, cat. no. 3690) were coated at 4° C. overnight with 2 μg/ml of an anti-ABD goat antibody (produced in-house) diluted in coating buffer (50 mM sodium carbonate, pH 9.6; Sigma, cat. no. C3041).

human Aβ1-40 peptide [4] = biological target: T1, human Aβ1-40 peptide; assay: ELISA, fusion captured by anti-ABD antibody, biotinylated hAβ1-40 titrated

T1 sequence (peptide, as listed by the source): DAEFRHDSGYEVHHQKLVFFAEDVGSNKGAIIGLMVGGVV

B1: AQHDEALE-[ABPP095]-VDYV-[ABD]-YVPG (designed binder)
chain: AQHDEALEAGGERVYLPNLNADQLCAFIRSLEDDPSQSANLLAEAKKLNDAQAPASSSSGSSSSGRASAGGERVYLPNLNADQLCAFIRSLEDDPSQSANLLAEAKKLNDAQAPKVDYVLAEAKVLANRELDKYGVSDYYKNLINNAKTVEGVKALIDEILAALPYVPG
Human Aβ1-40 peptide [1]
  Response RU: 24.6 RU
[2]
  Response RU: 40.6 RU

B2: AQHDEALE-[ABPP107]-VDYV-[ABD]-YVPG (designed binder)
chain: AQHDEALEAGRERVYLPNLNADQLCAFIRSLEDDRSQNANLLAEAKKLNDAQAPASSSSGSSSSGRASAGGEIVYFPNLNADQLCAFIRSLEDDSSQSANLLAEAKKLNDAQAPKVDYVLAEAKVLANRELDKYGVSDYYKNLINNAKTVEGVKALIDEILAALPYVPG
notes: periplasmic ABD fusion
Human Aβ1-40 peptide [1]
  Response RU: 15.6 RU
Human Aβ1-40 peptide [3]
  ELISA response (absorbance 450 nm): ≥ 0.2 AU
[2]
  Response RU: 42.2 RU
Human Aβ1-40 peptide [4]
  EC50: 4.8 nM

B3: AQHDEALE-[ABPP108]-VDYV-[ABD]-YVPG (designed binder)
chain: AQHDEALEAGRERVYLRNLNADQLCAFIRSLEDDPSQNANLLAEAKKLNDAQAPASSSSGSSSSGRASAGGEIVYFPNLNAHQLCAFIQSLEDDPSQSANLLAEAKKLNDAQAPKVDYVLAEAKVLANRELDKYGVSDYYKNLINNAKTVEGVKALIDEILAALPYVPG
notes: periplasmic ABD fusion
Human Aβ1-40 peptide [1]
  Response RU: 15.2 RU
Human Aβ1-40 peptide [3]
  ELISA response (absorbance 450 nm): ≥ 0.2 AU
[2]
  Response RU: 41.5 RU
Human Aβ1-40 peptide [4]
  EC50: 5.8 nM

B4: AQHDEALE-[ABPP059]-VDYV-[ABD]-YVPG (designed binder)
chain: AQHDEALEAGGERVYLPNLNADQLCAFIRSLEDDPSQSANLLAEAKKLNDAQAPASSSSGSSSSGRASAGRERVYLPNLNADQLCAFIQSLEDDPSQSANLLAEAKKLNDAQAPKVDYVLAEAKVLANRELDKYGVSDYYKNLINNAKTVEGVKALIDEILAALPYVPG
notes: periplasmic ABD fusion
Human Aβ1-40 peptide [1]
  Response RU: 15.4 RU
[2]
  Response RU: 39.5 RU
Human Aβ1-40 peptide [4]
  EC50: 13 nM

B5: AQHDEALE-[ABPP109]-VDYV-[ABD]-YVPG (designed binder)
chain: AQHDEALEAGGERVYLPNLNAHQLCAFIQSLEDDPSQSANLLAEAKKLNDAQAPASSSSGSSSSGRASAGGERVYLPNLNAHQLCAFIRSLEDDPSQSANLLAEAKKLNDAQAPKVDYVLAEAKVLANRELDKYGVSDYYKNLINNAKTVEGVKALIDEILAALPYVPG
notes: periplasmic ABD fusion
Human Aβ1-40 peptide [1]
  Response RU: 20.2 RU
Human Aβ1-40 peptide [3]
  ELISA response (absorbance 450 nm): ≥ 0.2 AU
[2]
  Response RU: 42 RU
Human Aβ1-40 peptide [4]
  EC50: 5 nM

B6: AQHDEALE-[ABPP049]-VDYV-[ABD]-YVPG (designed binder)
chain: AQHDEALEAGGERVYFTNLNADQLCAFIQSLEDDPSQSANLLAEAKKLNDAQAPASSSSGSSSSGRASAGRERVYLPNLNAHQLCAFIRSLEDDPSQQANLLAEAKKLNDAQAPKVDYVLAEAKVLANRELDKYGVSDYYKNLINNAKTVEGVKALIDEILAALPYVPG
notes: periplasmic ABD fusion
Human Aβ1-40 peptide [1]
  Response RU: 13.7 RU
[2]
  Response RU: 30.6 RU
Human Aβ1-40 peptide [4]
  EC50: 7.1 nM

B7: AQHDEALE-[ABPP072]-VDYV-[ABD]-YVPG (designed binder)
chain: AQHDEALEAGRERVYLPNLNADQLCAFIRSLEDDPSQSANLLAEAKKLNDAQAPASSSSGSSSSGRASAGGEIVYFPNLNADQLCAFIRSLEDDPSQSANLLAEAKKLNDAQAPKVDYVLAEAKVLANRELDKYGVSDYYKNLINNAKTVEGVKALIDEILAALPYVPG
notes: periplasmic ABD fusion
Human Aβ1-40 peptide [1]
  Response RU: 10.1 RU
[2]
  Response RU: 39.7 RU
Human Aβ1-40 peptide [4]
  EC50: 8.5 nM

B8: AQHDEALE-[ABPP035]-VDYV-[ABD]-YVPG (designed binder)
chain: AQHDEALEAGGEIVYFPNLNAHQLCAFIRSLEDDPSQQANLLAEAKKLNDAQAPASSSSGSSSSGRASAGRERVYLPNLNADQLCAFINSIEDDPSQSANLLAEAKKLNDAQAPKVDYVLAEAKVLANRELDKYGVSDYYKNLINNAKTVEGVKALIDEILAALPYVPG
notes: periplasmic ABD fusion
Human Aβ1-40 peptide [1]
  Response RU: 8.6 RU
[2]
  Response RU: 31.8 RU

B9: AQHDEALE-[ABPP111]-VDYV-[ABD]-YVPG (designed binder)
chain: AQHDEALEAGRERVYFPNLNADQLCAFIQSLEDDPSQNANLLAEAKKLNDAQAPASSSSGSSSSGRASAGGERVYFPNLNADQLCAFIRSLEDDSSQSANLLAEAKKLNDAQAPKVDYVLAEAKVLANRELDKYGVSDYYKNLINNAKTVEGVKALIDEILAALPYVPG
notes: periplasmic ABD fusion
Human Aβ1-40 peptide [1]
  Response RU: 14.2 RU
Human Aβ1-40 peptide [3]
  ELISA response (absorbance 450 nm): ≥ 0.2 AU
[2]
  Response RU: 35.6 RU
Human Aβ1-40 peptide [4]
  EC50: 14 nM

B10: AQHDEALE-[ABPP070]-VDYV-[ABD]-YVPG (designed binder)
chain: AQHDEALEAGRERVYLPNLNADQLCAFIRSLEDDPSQSANLLAEAKKLNDAQAPASSSSGSSSSGRASAGGERVYLPNLNADQLCAFIQSLEDDPSQSANLLAEAKKLNDAQAPKVDYVLAEAKVLANRELDKYGVSDYYKNLINNAKTVEGVKALIDEILAALPYVPG
notes: periplasmic ABD fusion
Human Aβ1-40 peptide [1]
  Response RU: 16.6 RU
[2]
  Response RU: 40.7 RU

B11: AQHDEALE-[ABPP051]-VDYV-[ABD]-YVPG (designed binder)
chain: AQHDEALEAGGEIVYFPNLNADQLCAFIRSLEDDPSQQANLLAEAKKLNDAQAPASSSSGSSSSGRASAGRERVYLPNLNADQLCAFIRSIEDDRSQQANLLAEAKKLNDAQAPKVDYVLAEAKVLANRELDKYGVSDYYKNLINNAKTVEGVKALIDEILAALPYVPG
notes: periplasmic ABD fusion
Human Aβ1-40 peptide [1]
  Response RU: 21.4 RU
[2]
  Response RU: 51.5 RU
Human Aβ1-40 peptide [4]
  EC50: 4.6 nM

B12: AQHDEALE-[ABPP142]-VDYV-[ABD]-YVPG (designed binder)
chain: AQHDEALEAGRERVYLPNLNAHQLCAFIQSLEDDPSQSANLLAEAKKLNDAQAPASSSSGSSSSGRASAGGEIVYFPNLNADQLCAFIQSLEDDPSQSANLLAEAKKLNDAQAPKVDYVLAEAKVLANRELDKYGVSDYYKNLINNAKTVEGVKALIDEILAALPYVPG
notes: periplasmic ABD fusion
Human Aβ1-40 peptide [1]
  Response RU: 9.5 RU
Human Aβ1-40 peptide [3]
  ELISA response (absorbance 450 nm): ≥ 0.2 AU
[2]
  Response RU: 32.2 RU

B13: AQHDEALE-[ABPP112]-VDYV-[ABD]-YVPG (designed binder)
chain: AQHDEALEAGGEMVYLPNLNAHQLCAFIRSLEDDPSQSANLLAEAKKLNDAQAPASSSSGSSSSGRASAGGEIVYLPNLNADQLCAFIQSLEDDPSQSANLLAEAKKLNDAQAPKVDYVLAEAKVLANRELDKYGVSDYYKNLINNAKTVEGVKALIDEILAALPYVPG
notes: periplasmic ABD fusion
Human Aβ1-40 peptide [1]
  Response RU: 12.1 RU
Human Aβ1-40 peptide [3]
  ELISA response (absorbance 450 nm): ≥ 0.2 AU
[2]
  Response RU: 48.1 RU
Human Aβ1-40 peptide [4]
  EC50: 4.6 nM

B14: AQHDEALE-[ABPP141]-VDYV-[ABD]-YVPG (designed binder)
chain: AQHDEALEAGGEIVYFPNLNAHQLCAFIQSLEDDPSQNANLLAEAKKLNDAQAPASSSSGSSSSGRASAGGERVYFPNLNADQLCAFIRSLEDDSSQSANLLAEAKKLNDAQAPKVDYVLAEAKVLANRELDKYGVSDYYKNLINNAKTVEGVKALIDEILAALPYVPG
notes: periplasmic ABD fusion
Human Aβ1-40 peptide [1]
  Response RU: 10.5 RU
Human Aβ1-40 peptide [3]
  ELISA response (absorbance 450 nm): ≥ 0.2 AU
[2]
  Response RU: 31.5 RU

B15: AQHDEALE-[ABPP078]-VDYV-[ABD]-YVPG (designed binder)
chain: AQHDEALEAGRERVYLPNLNAHQLCAFINSLEDDPSQSANLLAEAKKLNDAQAPASSSSGSSSSGRASAGGEIVYLPNLNAHQLCAFIQSLEDDPSQSANLLAEAKKLNDAQAPKVDYVLAEAKVLANRELDKYGVSDYYKNLINNAKTVEGVKALIDEILAALPYVPG
notes: periplasmic ABD fusion
Human Aβ1-40 peptide [1]
  Response RU: 12.5 RU
[2]
  Response RU: 38.6 RU
Human Aβ1-40 peptide [4]
  EC50: 30 nM

B16: AQHDEALE-[ABPP114]-VDYV-[ABD]-YVPG (designed binder)
chain: AQHDEALEAGGERVYFPNLNADQLCAFIRSLEDDPSQSANLLAEAKKLNDAQAPASSSSGSSSSGRASAGGERVYLPNLNADQLCAFIRSLEDDPSQSANLLAEAKKLNDAQAPKVDYVLAEAKVLANRELDKYGVSDYYKNLINNAKTVEGVKALIDEILAALPYVPG
notes: periplasmic ABD fusion
Human Aβ1-40 peptide [1]
  Response RU: 34.1 RU
Human Aβ1-40 peptide [3]
  ELISA response (absorbance 450 nm): ≥ 0.2 AU
[2]
  Response RU: 50.9 RU

B17: AQHDEALE-[ABPP064]-VDYV-[ABD]-YVPG (designed binder)
chain: AQHDEALEAGGERVYLPNLNADQLCAFIQSLEDDPSQSANLLAEAKKLNDAQAPASSSSGSSSSGRASAGGERVYLPNLNAHQLCAFIQSLEDDPSQSANLLAEAKKLNDAQAPKVDYVLAEAKVLANRELDKYGVSDYYKNLINNAKTVEGVKALIDEILAALPYVPG
notes: periplasmic ABD fusion
Human Aβ1-40 peptide [1]
  Response RU: 12 RU
[2]
  Response RU: 38.8 RU
Human Aβ1-40 peptide [4]
  EC50: 4 nM

B18: AQHDEALE-[ABPP138]-VDYV-[ABD]-YVPG (designed binder)
chain: AQHDEALEAGGEMVYLPNLNADQLCAFINSLEDDPSQSANLLAEAKKLNDAQAPASSSSGSSSSGRASAGGEIVYFPNLNAHQLCAFIRSLEDDPSQSANLLAEAKKLNDAQAPKVDYVLAEAKVLANRELDKYGVSDYYKNLINNAKTVEGVKALIDEILAALPYVPG
notes: periplasmic ABD fusion
Human Aβ1-40 peptide [1]
  Response RU: 10.1 RU
Human Aβ1-40 peptide [3]
  ELISA response (absorbance 450 nm): ≥ 0.2 AU
[2]
  Response RU: 37.8 RU

B19: AQHDEALE-[ABPP055]-VDYV-[ABD]-YVPG (designed binder)
chain: AQHDEALEAGRERVYIPNLNADQLCAFIRSLEDDPSQSANLLAEAKKLNDAQAPASSSSGSSSSGRASAGGEIVYFPNLNADQLCAFIQSLEDDPSQSANLLAEAKKLNDAQAPKVDYVLAEAKVLANRELDKYGVSDYYKNLINNAKTVEGVKALIDEILAALPYVPG
notes: periplasmic ABD fusion
Human Aβ1-40 peptide [1]
  Response RU: 18.2 RU
[2]
  Response RU: 37 RU
Human Aβ1-40 peptide [4]
  EC50: 2.8 nM

B20: AQHDEALE-[ABPP110]-VDYV-[ABD]-YVPG (designed binder)
chain: AQHDEALEAGRERVYLPNLNAHQLCAFIRSLEDDPSQSANLLAEAKKLNDAQAPASSSSGSSSSGRASAGGERVYLPNLNADQLCAFIRSLEDDPSQSANLLAEAKKLNDAQAPKVDYVLAEAKVLANRELDKYGVSDYYKNLINNAKTVEGVKALIDEILAALPYVPG
notes: periplasmic ABD fusion
Human Aβ1-40 peptide [1]
  Response RU: 13.8 RU
Human Aβ1-40 peptide [3]
  ELISA response (absorbance 450 nm): ≥ 0.2 AU
[2]
  Response RU: 37.5 RU

B21: AQHDEALE-[ABPP065]-VDYV-[ABD]-YVPG (designed binder)
chain: AQHDEALEAGGEIVYFPNLNADQLCAFIRSLEDDPSQQANLLAEAKKLNDAQAPASSSSGSSSSGRASAGRERVYLPNLNADQLCAFIRSLEDDPSQRANLLAEAKKLNDAQAPKVDYVLAEAKVLANRELDKYGVSDYYKNLINNAKTVEGVKALIDEILAALPYVPG
notes: periplasmic ABD fusion
Human Aβ1-40 peptide [1]
  Response RU: 8.4 RU
[2]
  Response RU: 39.1 RU
Human Aβ1-40 peptide [4]
  EC50: 13 nM
